Screen size: about 310,000 compounds; about 2,200 (0.71%) showed an effect of 50% or more. Effects have a minus sign here. Some of the results follow.
These compounds were tested against human ether-à-go-go-related gene (hERG) potassium channel (human, UniProt Q12809) (assay: primary screen, population patch clamp on CHO cells stably expressing hERG).
Chain of human ether-à-go-go-related gene (hERG) potassium channel (Q12809 whole entry, looked up): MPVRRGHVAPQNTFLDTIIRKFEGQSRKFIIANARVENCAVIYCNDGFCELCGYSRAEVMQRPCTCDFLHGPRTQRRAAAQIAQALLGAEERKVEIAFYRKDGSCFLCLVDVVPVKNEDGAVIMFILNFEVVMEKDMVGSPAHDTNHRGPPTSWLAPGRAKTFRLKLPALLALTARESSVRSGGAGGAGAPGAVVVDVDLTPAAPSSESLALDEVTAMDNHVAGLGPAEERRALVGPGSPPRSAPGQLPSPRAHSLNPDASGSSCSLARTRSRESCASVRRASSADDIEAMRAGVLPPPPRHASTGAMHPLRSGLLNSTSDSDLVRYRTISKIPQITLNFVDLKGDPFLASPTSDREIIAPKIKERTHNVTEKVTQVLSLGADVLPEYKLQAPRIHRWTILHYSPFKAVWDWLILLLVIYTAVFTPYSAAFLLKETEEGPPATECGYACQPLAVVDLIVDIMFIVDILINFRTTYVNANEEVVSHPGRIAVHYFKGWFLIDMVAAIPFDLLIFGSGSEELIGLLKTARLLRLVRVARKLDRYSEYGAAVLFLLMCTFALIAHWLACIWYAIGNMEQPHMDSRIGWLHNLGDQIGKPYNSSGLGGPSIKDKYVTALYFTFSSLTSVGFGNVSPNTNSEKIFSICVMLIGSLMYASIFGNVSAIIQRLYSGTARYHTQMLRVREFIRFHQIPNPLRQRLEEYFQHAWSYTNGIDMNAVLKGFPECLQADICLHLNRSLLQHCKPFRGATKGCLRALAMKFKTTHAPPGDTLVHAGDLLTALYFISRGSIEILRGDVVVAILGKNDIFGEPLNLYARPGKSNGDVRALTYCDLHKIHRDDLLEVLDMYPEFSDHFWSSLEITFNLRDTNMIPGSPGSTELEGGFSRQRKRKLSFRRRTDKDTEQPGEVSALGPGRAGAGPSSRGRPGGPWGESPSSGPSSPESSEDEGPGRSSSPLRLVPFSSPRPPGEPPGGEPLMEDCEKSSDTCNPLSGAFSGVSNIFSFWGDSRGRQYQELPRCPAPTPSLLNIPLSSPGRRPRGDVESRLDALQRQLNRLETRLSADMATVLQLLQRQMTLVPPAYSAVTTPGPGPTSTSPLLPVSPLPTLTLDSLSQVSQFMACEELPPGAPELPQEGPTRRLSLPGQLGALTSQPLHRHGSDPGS

Structure (SMILES)	hERG current change (%, negative = inhibition) at 1uM [%]
Cc1nc(C)c(C(=O)N(c2ccccc2F)C(C(=O)NCC2CCCO2)c2ccccc2)s1 (stereo not shown)	9.5
COc1ccccc1-c1cn[nH]c1-c1ccc(OCc2ccc(F)cc2)cc1O	9.42
O=[N+]([O-])c1ccc(-c2c[nH]c(=S)[nH]2)cc1	8.17
CCOc1ccc(/C=C/C(=O)Nc2ccc(OC)cc2[N+](=O)[O-])cc1	6.49
Cn1c(=O)c2c(nc(Cl)n2CC(=O)NC2(C#N)CCCCC2)n(C)c1=O	8.19
O=C(NC(=S)NCCC1=CCCCC1)c1ccco1	16.4
COc1ccc2c(C)c(CCC(=O)NC3CC3)c(=O)oc2c1C	11
O=C(CSc1ncccn1)N/N=C/c1ccc(OC2CSC2)cc1	2.44
CSc1cccc(CN2CCC(Oc3cccc(C(=O)N4CCCC4)c3)CC2)c1	0.494
Cc1cccc(N2C(=O)C(Oc3ccc(Cl)cc3Cl)C2C=O)c1C (stereo not shown)	-1.5
O=C(C1=C[C@@H](c2ccc3c(c2)OCO3)C[C@@H](OCCCCO)O1)N1CCOCC1	17.1
CC(NS(=O)(=O)c1ccc(Br)s1)c1ccccc1 (stereo not shown)	13.1
CCOC(=O)N1CCN(C(=O)CSc2nc(CC)nc3c2c(=O)n(C)c(=O)n3C)CC1	9.94
CN(C)S(=O)(=O)c1ccc(Cl)c(C(=O)NCc2ccco2)c1	11.7
Clc1ccccc1/C=N/c1cc(-c2ccccc2)nn1-c1ccccc1	13.2
CCN(CC)CCN(C(=O)c1ccc(N2C(=O)CCC2=O)cc1)c1nc2cc3c(cc2s1)OCCO3.Cl	6.37
O=C(Nc1ncc2c(n1)-c1ccccc1OC2)c1ccc(Cl)cc1Cl	8.68
COc1ccccc1C(c1c(N)n(C)c(=O)n(C)c1=O)C(C)[N+](=O)[O-] (stereo not shown)	9.39
Cc1nc2ccc(NC(=O)COc3ccccc3F)cc2s1	14.1
CC(=O)NN1C(=O)c2ccccc2NC1c1ccccc1O (stereo not shown)	13.1
CCN(CC)C(=O)c1ncn(Cc2ccccc2)c1C(=O)N(CC)CC	16.1
Fc1ccc(C2=CC(c3cccs3)n3nnnc3N2)cc1 (stereo not shown)	9.9

Structure (SMILES)	hERG current change (%, negative = inhibition) at 1uM [%]
COc1ncccc1-c1nnn(-c2ccc(Cl)c(Cl)c2)n1	11.9
O=C(Oc1ccc(N2C(=O)CCC2=O)cc1)c1ccco1	2.39
CSc1cccc(NC(=O)CNC(=O)c2ccc3c(c2)OCO3)c1	-2.54
COc1ccccc1NC(=O)N1CCCC(CNC(=O)c2ccccc2Cl)C1 (stereo not shown)	15.4
c1ccc(Cn2nnnc2C(c2cccs2)N2CCSCC2)cc1 (stereo not shown)	6.95
O=c1[nH]nc(SCc2ccccc2)c(=O)[nH]1	6.14
CS(=O)(=O)N(Cc1ccccc1)c1ccc(C(=O)Nc2ccc3c(c2)OCO3)cc1	0.276
O=C(Cn1[nH]c(=O)c2ccccc2c1=O)OCC(=O)N(Cc1ccccc1)Cc1ccccc1	5.95
Cc1ccc(C)c(OCc2cc(C(=O)NC(c3ccccn3)C(F)(F)F)no2)c1 (stereo not shown)	12.9
Cc1c(NC(NC(=O)CC(C)C)C(Cl)(Cl)Cl)c(=O)n(-c2ccccc2)n1C (stereo not shown)	9.78
O=C(Nc1nccs1)c1ccccc1[N+](=O)[O-]	6.51
COc1ccc(NC2CC(=O)N(c3cccc([N+](=O)[O-])c3)C2=O)cc1 (stereo not shown)	1.88
Cc1cc(C)n(C(=O)c2c([N+](=O)[O-])c(C)nn2C)n1	16.2
COc1ccc(NC(=O)c2ccc(Cl)nc2)cc1S(=O)(=O)N1CCOCC1	10.2
COC(=O)C1=C(N)Oc2cc(C)n(C)c(=O)c2C1c1ccc(Cl)c(Cl)c1 (stereo not shown)	15.5
O=C(NCc1ccco1)c1cccn2c(=O)c3sccc3nc12	-9.54
O=CN1CCN(c2ncnc3c2nnn3Cc2c(F)cccc2Cl)CC1	12.7
O=c1[nH]c(=O)n(Cc2ccccc2Cl)c(O)c1/C=C1/C=CC=N1	17.9
CN(C)C(CNC(=O)c1cccc(C(F)(F)F)c1)c1ccco1 (stereo not shown)	5.35
O=C(N/N=C/c1cccc([N+](=O)[O-])c1O)c1cccs1	-1.55
CCOc1ccccc1-n1nnnc1SC(C)C(=O)OC (stereo not shown)	10.5
COc1ccc2oc(=O)cc(CN3CCOCC3)c2c1	10.4

Structure (SMILES)	hERG current change (%, negative = inhibition) at 1uM [%]
NS(=O)(=O)c1ccc(CCNC(=O)C2CCCN(S(=O)(=O)c3cccnc3)C2)cc1 (stereo not shown)	-4.45
CCOC(=O)c1ccc(NC(=O)c2nc[nH]c2C(=O)N(C)Cc2ccccc2)cc1	9.44
Cc1ccc(C2(c3ccc(C)cc3)CC2C(=O)NCc2cccnc2)cc1 (stereo not shown)	11.4
O=C(NCCc1csc(-c2cccnc2)n1)c1cccc(Cl)c1	4.15
Cc1cc([N+](=O)[O-])nn1CCC(=O)NC1CCCCCC1	2.84
C/C(CC(=O)N(C(C)C)C(C)C)=N\NC(=O)c1ccccc1Br	19.6
COc1ccc(N(CC(=O)N2CCN(Cc3ccc4c(c3)OCO4)CC2)S(=O)(=O)c2ccc(F)cc2)cc1	-24.5
COC(=O)C1=C(c2ccccc2OCc2ccccc2)C[C@@H]2CC[C@H]1N2C(=O)NCc1ccc(OC)c(OC)c1	11.2
CCOC(=O)c1cc2c(=O)n3ccccc3nc2n(CC2CCCO2)c1=NC(=O)/C=C/c1ccccc1 (stereo not shown)	1.02
Cc1nc(/N=C\N(C)C)sc1C(=O)Nc1ccccc1	10.9
NS(=O)(=O)c1ccc(NC=C2C(=O)OC3(CCCCC3)OC2=O)cc1	6.95
O=c1cc(N2CCc3ccccc3C2)[nH]c(=O)n1C1CCCCC1	11.9
CC(=O)Cc1nsc(NC(=O)c2ccccc2)n1	18.5
CCN1CCN(Cc2nnc(-c3ccccc3)o2)CC1	1.55
COc1ccc(NC(=S)N2CCCC2)cc1OC	11.9
CCCOC(=O)c1ccc(NC(=O)c2ccc(Br)o2)cc1	4.8
CC(=O)c1c(C)[nH]c(C(=O)OCC(=O)N2CC(C)OC(C)C2)c1C (stereo not shown)	23.6
CC(=O)N(Cc1ccccc1)c1c(N)nc(N)[nH]c1=O	11.9
CC(C)Oc1cc(NC(=O)CS(=O)CC(=O)N(C)C)c(Cl)cc1Cl (stereo not shown)	10.1
CC(C)CC(NC(=O)c1ccccc1NC(=O)c1ccccc1)C(=O)O (stereo not shown)	8.06
O=C(NC1(C(F)(F)F)N=C(c2ccccc2)NC1=O)c1ccccc1 (stereo not shown)	9.23
O=C(CNC(=O)c1ccccc1Cl)N/N=C/C=C/c1ccccc1	2.93

Structure (SMILES)	hERG current change (%, negative = inhibition) at 1uM [%]
CCNC(=O)C1CC(=O)N(c2ccc(Br)cc2)C1 (stereo not shown)	5.59
CS(=O)(=O)Nc1ccc(C2=NN(C(=O)CCCC(=O)O)C(c3cccs3)C2)cc1 (stereo not shown)	12.1
Oc1c(Br)cc(Br)cc1CNc1cnc2ccccc2c1	16.5
COc1cc(/C=N/Nc2ccccc2)ccc1OC(=O)c1cccs1	11.6
CCc1sc(NC(=O)COC)nc1-c1ccccc1	-0.229
COc1ccc(NC(=O)C(OC)c2ccccc2)cc1Cl (stereo not shown)	17.9
O=C(NCCCN1CCCC1=O)c1ccc2c(=O)n(-c3ccc(F)cc3)c(=S)[nH]c2c1	12.1
COc1ccc(-n2nc(C(=O)NCC(=O)NCc3ccccc3OC)c3ccccc3c2=O)cc1	-31.4
O=C(CCn1c(=O)sc2ccccc21)NCCC1=CCCCC1	11.8
COc1ccc(-c2nnn(Cc3nc(N)nc(N4CCCCC4)n3)n2)cc1	0.639
Cc1ccc(N2CCN(CCc3nc4cc(NC(=O)c5ccco5)ccc4n3C)CC2)cc1	-37.9
CNc1ncc(C(=O)c2ccc(Cl)c(Cl)c2)s1	3.31
COc1ccc(CCNC(=O)C23CN(Cc4ccccc4)CC2C(c2ccc([N+](=O)[O-])cc2)=NO3)cc1 (stereo not shown)	-4.06
Cn1nc(C(C)(C)C)c(NC(=O)c2sccc2Cl)c1C(C)(C)C	5.58
CC(=O)NNC(=S)Nc1cccc(F)c1	6.88
CC(C)C[C@H](NC(=O)N1CCn2c1nc1ccccc12)C(=O)N1CCCCC1	12.3
CCOC(=O)c1c(C)[nH]c(C)c1C(=O)CSc1nnc(-c2ccco2)n1Cc1ccccc1	7.51
COc1ccc(-c2csc(NC(=O)CSc3nnnn3C)n2)cc1OC	9.13
COc1ccccc1-n1c(=O)[nH]c2c(C(N)=O)nc(CC(C)C)nc21	7.02
Cl.O=C(CCN1CCCCCC1)Nc1ccccc1F	5.74
COc1cc(NC(=O)COc2ccc(Cl)cc2)ccc1NC(=O)C(C)C	15.1
CCc1nnc(NC(=O)CSc2nnc3ncccn23)s1	15.5

Reference: publication PMC4336329 (PLoS ONE, 2015)
